In publication PMC4336329 (PLoS ONE, 2015):
In all, about 310,000 compounds went through this assay and about 14,000 (4.5%) showed an effect of 50% or more. The effect is printed as a negative number. Some of the results follow.

biological target: human ether-à-go-go-related gene (hERG) potassium channel (human, UniProt Q12809); test: primary screen, population patch clamp on CHO cells stably expressing hERG
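Note: peak tail current of the secondary pulse compared with the same well before compound.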

Chain of human ether-à-go-go-related gene (hERG) potassium channel (Q12809 whole entry, looked up): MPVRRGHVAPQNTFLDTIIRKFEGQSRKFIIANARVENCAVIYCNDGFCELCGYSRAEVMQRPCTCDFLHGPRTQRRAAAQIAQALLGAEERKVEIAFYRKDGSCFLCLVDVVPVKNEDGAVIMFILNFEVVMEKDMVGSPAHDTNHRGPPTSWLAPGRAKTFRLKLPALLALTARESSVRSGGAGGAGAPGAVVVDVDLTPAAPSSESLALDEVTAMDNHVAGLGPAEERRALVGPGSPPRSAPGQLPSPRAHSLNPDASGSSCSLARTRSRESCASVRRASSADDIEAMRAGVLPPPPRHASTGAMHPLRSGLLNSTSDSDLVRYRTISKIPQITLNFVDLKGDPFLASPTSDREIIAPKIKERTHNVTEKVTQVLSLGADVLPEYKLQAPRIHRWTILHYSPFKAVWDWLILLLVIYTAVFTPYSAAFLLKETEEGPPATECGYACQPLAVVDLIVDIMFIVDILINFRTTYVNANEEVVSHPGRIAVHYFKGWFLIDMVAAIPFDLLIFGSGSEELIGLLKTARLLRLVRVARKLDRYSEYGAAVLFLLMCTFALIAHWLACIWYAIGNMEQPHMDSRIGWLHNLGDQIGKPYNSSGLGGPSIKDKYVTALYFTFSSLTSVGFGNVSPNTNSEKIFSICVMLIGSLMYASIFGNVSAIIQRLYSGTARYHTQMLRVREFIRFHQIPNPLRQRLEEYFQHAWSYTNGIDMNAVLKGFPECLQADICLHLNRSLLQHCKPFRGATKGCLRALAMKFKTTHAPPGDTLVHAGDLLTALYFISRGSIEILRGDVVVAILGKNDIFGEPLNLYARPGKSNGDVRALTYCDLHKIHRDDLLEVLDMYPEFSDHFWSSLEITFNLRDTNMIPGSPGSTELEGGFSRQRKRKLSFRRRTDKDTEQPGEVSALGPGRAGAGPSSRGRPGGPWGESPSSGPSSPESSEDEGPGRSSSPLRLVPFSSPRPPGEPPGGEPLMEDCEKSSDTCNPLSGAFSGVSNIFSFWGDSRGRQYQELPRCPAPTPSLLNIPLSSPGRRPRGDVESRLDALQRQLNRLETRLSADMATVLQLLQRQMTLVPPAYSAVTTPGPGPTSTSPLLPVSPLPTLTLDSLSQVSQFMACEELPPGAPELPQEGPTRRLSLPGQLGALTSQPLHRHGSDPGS

Structure (SMILES)	hERG current change (%, negative = inhibition) at 10uM [%]
CCOC(=O)C1C(c2cc(OC)c(O)c(OC)c2)NC(=S)NC1(O)C(F)(F)F (stereo not drawn)	6.12
Cc1ccc(-c2nc(C3CCN(S(C)(=O)=O)CC3)no2)cc1	-4.33
COc1cc(C(=O)N2CCC(n3cnc4cc(F)ccc43)CC2)cc(OC)c1OC	-56.9
O=C1CN(S(=O)(=O)c2cccc(Cl)c2Cl)c2ccccc2N1	3.58
Cc1nc([N+](=O)[O-])cn1CC(=O)Nc1ccc([N+](=O)[O-])cc1	10.8
CCn1c(Cc2cccs2)nnc1SCC(=O)NC(C)(C)C	14.1
CCn1c2ccccc2c2cc(NC(=O)COC(=O)c3ccc(O)cc3)ccc21	12.4
O=C(O)c1cc(-n2cccc2)ccc1N1CCOCC1	6.18
Cc1ccccc1OCCC(=O)OCC(=O)c1c(N)n(CC(C)C)c(=O)n(C)c1=O	-75.2
COc1ccc(C(=O)Nc2nnc(C)s2)cc1S(=O)(=O)N1CCOCC1	-14
Oc1oc(-c2ccccc2Br)nc1C=Nc1ccc(Br)cn1	10.8
CC(=NCc1ccc2c(c1)OCO2)c1c(O)n(C)c(=O)n(C)c1=O	-6.14
Nc1ncc([N+](=O)[O-])cc1S(=O)(=O)c1ccccc1	8.32
c1ccc(-c2nc(NCC3CCCO3)c3ccccc3n2)nc1 (stereo not drawn)	-23.3
Clc1ccc2scc(CN3CCCC3)c2c1	-9.81
N#Cc1ccc(OC(=O)Cc2ccsc2)cc1	30.1
Cl.Fc1ccc(CN2C3=NCCCN3c3ccccc32)cc1	-71.2
C/C(N)=C(/C#N)C(=O)CSc1nnc(Nc2c(C)cccc2C)s1	-6.78
CCN(c1ccccc1)P(=O)(Nc1ccccc1)Nc1ccccc1	0.944

Structure (SMILES)	hERG current change (%, negative = inhibition) at 10uM [%]
CCOC(=O)c1[nH]c(C)c(C(=O)N(CC)CC)c1C	4.54
Cc1c(Cl)cccc1-n1c(-c2cccnc2)n[nH]c1=S	25.2
CC(NC(=O)CN(C1CCCCC1)S(C)(=O)=O)c1ccccc1 (stereo not drawn)	0.428
COc1ccc(-c2nc(CS(=O)CC(=O)NCc3cccnc3)c(C)o2)cc1OC (stereo not drawn)	-2.9
CC(=O)Nc1ccc(S(=O)(=O)N2CCC(c3nc4ccccc4[nH]3)CC2)cc1	-18.4
C/C(=N\NC(=O)c1cccc(O)c1)c1ccc(NC(=O)Cc2ccccc2)cc1	-27
CC1(C)CC(=O)C(CCC(=O)c2ccccc2)C(C)(C)N1 (stereo not drawn)	0.958
COc1cc(OC)c(C2=NOC(C(=O)NCc3cccnc3)C2)cc1Cl (stereo not drawn)	13
CN1CCN(C(=O)C2CCC(=O)N(Cc3cccc(C(F)(F)F)c3)C2)CC1 (stereo not drawn)	-2.93
COc1ccc(CC2S/C(=C(\C#N)C(=O)NCc3ccco3)N(c3ccc(C)cc3)C2=O)cc1 (stereo not drawn)	11.5
CCC(C)NC(=O)Cn1ccc2cc(S(=O)(=O)N3CCCCCC3)ccc21 (stereo not drawn)	-8.77
Cc1ccc(S(=O)(=O)N2CCC(C(=O)NCCCN3CCOCC3)CC2)cc1	-11.4
O=C(CSc1nc2ccccc2[nH]1)Nc1ccc(N2CCOCC2)cc1	8.65
C/C(CC(=O)Nc1cccc(Cl)c1Cl)=N\NC(=O)C(=O)NC1CCCCC1	-10.5
COC(=O)c1ccccc1Nc1ccccc1	5.46
CCOC(=O)c1cnc(Nc2nc3ccccc3o2)nc1CSc1nnc(C)s1	-5.06
CCCCN1C(=O)C(=O)N(CC(=O)Nc2ccccc2C(=O)OCC)C1=O	8.29
CCOC(=O)c1ccc(NC(=O)c2sc3nc(N4CCOCC4)c4c(c3c2N)CCCC4)cc1	13.7
O=C(CNS(=O)(=O)c1cccs1)N1CCC2(CC1)OCCO2	1.9

Structure (SMILES)	hERG current change (%, negative = inhibition) at 10uM [%]
CCC(=O)N(Cc1ccccc1)c1ccccn1	24
Cc1cc(NS(=O)(=O)c2ccc(NC(=S)NC(=O)c3ccc(F)cc3)cc2)no1	2.07
CS(=O)(=O)N1CCC(C(=O)N2CCN(c3cccc(Cl)c3)CC2)CC1	8.32
CC1(C)CC(=O)C2=C(C1)N(N1CCOCC1)C(N)=C(C#N)C2c1cccnc1 (stereo not drawn)	11.3
Cc1ccc(OCCC(=O)Nc2ccc(S(=O)(=O)Nc3cc(C)nc(C)n3)cc2)cc1	1.18
COCC(C)NCc1ccc(C)cc1C (stereo not drawn)	-14.3
Cc1cc(NC(=O)CSCC(=O)N(C)Cc2ccc(F)cc2)no1	10.7
COc1ccc2c(c1)Sc1ccccc1N2CCN(C)C.O=C(O)C(=O)O	-21.3
COc1ccc(OC)c(S(=O)(=O)Nc2ccc(Oc3ccccc3)cc2)c1	-14
CS(=O)(=O)N1CCC(C(=O)NCc2ccc3c(c2)OCO3)CC1	18.9
NNc1nc(N)c2c(n1)-c1ccccc1CC21CCCC1	5.66
Cc1cc(N2CCN(c3ccccc3)CC2)nc(-n2nc(C)cc2C)n1	-63.2
Cc1ccc(-c2nc3ccccc3[nH]2)s1	-8.7
COc1ccc(N(C)C(=O)Cc2c(C(=O)O)n(C)c3ccccc23)c(OC)c1	32.9
CC12CC3CC(C)(C1)CC(CN)(C3)C2.Cl	2.34
C=CCC(C(=O)OC)(C(=O)OC)c1ccccc1[N+](=O)[O-]	10.3
COc1ccccc1-c1nnc(SC/C(O)=C(\C#N)c2nc3ccccc3[nH]2)n1C1CCCCC1	-2.08
CC(C)CNC(=O)[C@H](Cc1ccccc1)NC(=O)c1ccco1	-6.82
Cc1ccc(-c2nnc(Nc3ccccc3)c3ccccc23)cc1S(=O)(=O)NCC1CCCO1 (stereo not drawn)	-40.5
